Measured values published in PubChem BioAssay AID1963576 (National Center for Advancing Translational Sciences (NCATS), 2024).
About 60 (0.1%) of roughly 46,000 compounds were called active. Roughly 3% stayed inconclusive and do not appear here. The call rests on the fitted dose curve; in most records, active means well fitted inhibition curve with a large enough effect; inconclusive means small, poorly fitted or top-dose-only effect; inactive means no such curve, though single readings can be large or run the other way. The list shows a part of the results.

assay: Primary qHTS assay for Inhibitors of ovarian cancer metastasis using an organotypic tumor microenvironment (TME) model.; further: nearly all actives have a fitted effect of over 65% in size;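 on activity change, negative = inhibition: plate controls were DMSO wells for no effect and tomatine positive control wells for full effect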; details: SKOV3ip1-GFP adhesion/invasion on 3D omental model, fluorescence; series mostly up to 45.8 µM; activity change, negative = inhibition: at the top concentration
Method in brief: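 Primary human omental fibroblast/mesothelial 3D culture pre-formed 48 h. SKOV3ip1-GFP cells added with compounds (0.36-46 umol/L), incubated 2 h RT/16 h 37 C, fixed; GFP cells quantified at 488/509 nm.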

SMILES	activity change, negative = inhibition	outcome
Cc1cn(C)c(CC(=O)NCc2ccccc2Cl)c1C(=O)O	inactive: 3.27%	–
CCC(=O)N1c2ccccc2CC1C(=O)NCCc1ccc(C)cc1 (stereo unspecified)	inactive: 2.8%	–
CCOC(=O)c1ccc(N2C(=O)c3n[nH]c(-c4ccco4)c3C2c2ccc(O)c(OC)c2)cc1 (stereo unspecified)	–	inactive
CCN(CC)CCNC(=O)c1nn(C)c2c1CS(=O)(=O)c1ccccc1-2	inactive: 16.9%	–
Cc1ccc(CNC(=O)c2nn(C)c3c2CS(=O)(=O)c2ccccc2-3)cc1	inactive: 1.43%	–
Cc1cccc(NC(=O)Cn2c(=O)nc(-c3ccccc3)c3ccccc32)c1C	–	inactive
CC1=C(c2ccc(C(C)C)cc2)S(=O)(=O)NC1=NCc1ccccc1Br	inactive: -3.48%	–
CCOC(=O)c1c(C)oc2ccc(N(C(=O)c3ccncc3)S(=O)(=O)c3ccc(Br)cc3)cc12	–	inactive
O=C(c1ccc(CSc2nc3ccncc3n2Cc2cccc(F)c2)cc1)N1CCCCC1	inactive: 8.91%	–
CCOc1ccc(N(CC(=O)NCc2ccc(C)cc2)S(=O)(=O)c2c(C)noc2C)cc1	inactive: 16.3%	–
CCOc1ccc(CCNC(=O)Cn2ncc3c(=O)oc4ccc(C)cc4c32)cc1	inactive: -3.61%	–
CCOC(=O)c1c(C)[nH]c(C)c1S(=O)(=O)N1CCC(C(=O)Nc2ccc(C)cn2)CC1	inactive: 67.2%	–
CCOc1cc2[nH]c(=O)n(CCCC(=O)N3CCN(c4ccc(OC)cc4)CC3)c(=O)c2cc1OCC	inactive: 2.21%	–
COc1cc(NC(=O)CN2C(=O)CN(C)C(=O)c3ccccc32)cc(OC)c1OC	inactive: 6.21%	–
CCCCCCCCCC(=O)N[C@@H](Cc1c[nH]c2ccccc12)C(=O)N[C@H](CC(N)=O)C(=O)N[C@@H](CC(=O)O)C(=O)N[C@@H]1C(=O)NCC(=O)N[C@@H](CCCN)C(=O)N[C@@H](CC(=O)O)C(=O)N[C@H](C)C(=O)N[C@@H](CC(=O)O)C(=O)NCC(=O)N[C@H](CO)C(=O)N[C@@H]([C@@H](C)CC(=O)O)C(=O)N[C@@H](CC(=O)c2ccccc2N)C(=O)O[C@@H]1C	inactive: 4.02%	–
COc1ccc(C)cc1NC(=O)C1CCCN(S(=O)(=O)c2ccc3[nH]c(=O)ccc3c2)C1 (stereo unspecified)	–	inactive
CNC(=O)C1CCC(Cn2c(=O)c3sccc3n(CC(=O)Nc3ccc(C)c(F)c3)c2=O)CC1 (stereo unspecified)	inactive: 3.59%	–
Cc1ccc(F)c(NC(=O)Nc2ccc3snnc3c2)c1	–	inactive
CCCCN1CC(c2nc3ccccc3n2CCCCOc2ccc(C)c(C)c2)CC1=O (stereo unspecified)	inactive: 0.319%	–
COc1ccc(OC)c(NS(=O)(=O)c2ccc3[nH]c4c(c3c2)CCCCC4)c1	–	inactive
Cc1cccc(CNC(=O)Cn2ccc3cc(S(=O)(=O)N4CCCC4)ccc32)c1	inactive: -5.24%	–
O=C(NCCN1CCN(c2cccc(Cl)c2)CC1)C1COc2ccccc2C1 (stereo unspecified)	inactive: 3.47%	–
O=C1c2[nH]nc(-c3ccccc3O)c2C(c2cccc(Cl)c2)N1Cc1cccnc1 (stereo unspecified)	inactive: 1.9%	–

SMILES	activity change, negative = inhibition	outcome
CC(=O)N1CCCc2cc(S(=O)(=O)N(C)CC(=O)Nc3cccc(C)c3C)ccc21	inactive: 2.69%	–
CCOc1ccc(CCNC(=O)c2cn(CC)c3ccc(S(=O)(=O)N4CCCCCC4)cc3c2=O)cc1OCC	–	inactive
Cc1cccc(NC(=O)CS(=O)(=O)c2nc(-c3ccccc3)cn2-c2cccc(Cl)c2)c1C	inactive: 0.236%	–
COc1cc(C2C(C(=O)Nc3ccc(C)cc3C)=C(C)Nc3nc4ccccc4n32)cc(OC)c1OC (stereo unspecified)	–	inactive
CN(C)S(=O)(=O)c1ccc(C(=O)NC2CC(=O)N(c3ccc4c(c3)OCCO4)C2)cc1 (stereo unspecified)	inactive: -13.5%	–
CCOC(=O)c1cc(-c2ccc(C)cc2)n(CCC(=O)Nc2ccc(C(C)C)cc2)c1C	–	inactive
Cc1ccc(S(=O)(=O)N(CCc2ccccc2)CC(=O)Nc2cc(C)ccc2C)cc1	inactive: 6.05%	–
O=C(NC1CC(=O)N(c2ccc(Cl)cc2)C1)c1ccc2c(c1)OCO2 (stereo unspecified)	–	inactive
CCOc1ccccc1NC(=O)c1nc2nc(C)cc(C(F)F)n2n1	inactive: 0.54%	–
COc1cccc(N2CCN(C(=O)C3CCN(S(=O)(=O)c4c(C)noc4C)CC3)CC2)c1	inactive: 13.2%	–
Cn1cc(C(=O)NCc2ccccc2)c(=O)c2cc(S(=O)(=O)N3CCOCC3)ccc21	inactive: 0.425%	–
CCCN1CCN(CCCNC(=O)Cn2nc(CC)n3c(cc4occc43)c2=O)CC1	inactive: 0.82%	–
Cc1ccc2c(=O)cc(C(=O)N(Cc3ccc(N(C)C)cc3)C3CCS(=O)(=O)C3)oc2c1 (stereo unspecified)	inactive: -4.92%	–
Cc1cc(NC(=O)N(C)CCc2c(C)nn(C)c2C)ccc1Br	–	inactive
CSc1ccc(CCNC(=O)CN2C(=O)c3cccnc3Oc3ccc(C)cc32)cc1	inactive: 5.84%	–
COc1ccccc1CN1C(=O)CN(C2CCCCCC2)C(=O)C1c1ccc(C)cc1 (stereo unspecified)	inactive: -11.1%	–
Cc1cc(F)ccc1NS(=O)(=O)c1c(C)nc2scc(C)n2c1=O	inactive: -32.8%	–
CC1(C)O[C@H]2[C@@H](O1)[C@@H](C(=O)Nc1ccc(F)c(F)c1)O[C@@H]1OC(C)(C)O[C@@H]12	–	inactive
COc1ccc(Cn2c(SCc3ccc(C(=O)NCc4cccs4)cc3)nc3cccnc32)cc1	inactive: -5.47%	–
CCc1cccc(C)c1NC(=O)CSc1nc2ccccc2nc1N1CCOCC1	–	inactive
COc1ccc(C2NC(=O)N(C)C3=C2C(=O)N(c2ccc(F)cc2)C3)cc1 (stereo unspecified)	inactive: 1.16%	–
Cc1nn2c(C)c(C(=O)NCC(C)c3ccccc3)cnc2c1-c1ccccc1 (stereo unspecified)	–	inactive
O=C(NCCc1nc2ccccc2n1CCCOc1ccc(Cl)cc1)C1CCCCC1	inactive: -8.73%	–
